# Test results reported in ChEMBL document CHEMBL1157539, “Thousands of chemical starting points for antimalarial lead identification” (Nature, 2010).
# In all, about 13,000 compounds were measured (“IFI”: median about 4, highest 2% from about 17 on). Some of the results follow.
# Test: GSK_TCMDC: Inhibition Frequency Index (IFI). The number of non-kinase HTS assays where a compound showed > 50 % inhibition, expressed as a percentage of the number of such assays in which the compound was tested (-0 is zero)
# Type: functional
row,SMILES,IFI
1,CCCCc1ccc(S(=O)(=O)Nc2ccc3c(c2)CCN(Cc2c[nH]c4cnccc24)CC3)cc1,19.4%
2,Cc1ccc(F)cc1S(=O)(=O)N1CCCCC(c2ccc(C(F)(F)F)cc2)=N1,1.46%
3,O=C(Nc1cccc(-c2ccc(-c3nc4ccccc4[nH]3)cc2)c1)c1cccnc1,3.7%
4,Cc1[nH]c(-c2ccc(F)cc2)cc1C(=O)NC1CCN(Cc2ccccc2)CC1,0.93%
5,Cc1nc(O)c2c(ccc3ccc(CNc4ccc(C(=O)N[C@@H](CCC(=O)O)C(=O)O)cc4)cc32)n1,1.44%
6,CNC(=O)Cc1ccc(C(=O)Nc2cccc(-c3csc(-c4nc5ccccc5[nH]4)c3)c2)cc1,2.83%
7,Cc1nn(-c2ccccc2)c2nc(-c3ccccc3)cc(C(=O)N3CCOCC3)c12,3.31%
8,O=S(=O)(NC1CCN(c2ccnc3cc(Cl)ccc23)C1)c1cccc(F)c1 (stereo unspecified),1.54%
9,Cc1cc(NCCC(=O)Nc2ccccc2)nc(NCCc2cccs2)n1,4.88%
10,CN(CCN)Cc1cccc(-c2cccc(-c3nc4cc(C(F)(F)F)ccc4[nH]3)c2)c1,3.96%
11,Cc1cccc2nc(-c3ccc(-c4cccc(CN5CCC(C(N)=O)CC5)c4)s3)[nH]c12,3.77%
12,O=C(/C=C/c1ccc(Cl)c(Cl)c1)NCCCCCN1CCN(C(=O)Nc2ccc(Cl)c(C(F)(F)F)c2)CC1,4.67%
13,Cc1nnsc1C(=O)Nc1cccc(-c2ccc(-c3nc4cccc(C)c4[nH]3)s2)c1,6.31%
14,COc1cc(OC)c(NC(=O)C2c3ccccc3C(=O)N(C)C2c2cccs2)cc1Cl (stereo unspecified),0%
15,CC(C)Nc1cc(C(=O)N[C@@H](Cc2ccccc2)[C@H](O)CNC(C)(C)c2cccc(C(F)(F)F)c2)cc(N2CCCCS2(=O)=O)c1,6.99%
16,Cc1cc(N(C)CCN(C)C)nc(Nc2ccc(Br)cc2)n1,-0%
17,Cc1c(-c2ccc3c(c2)C(NCCCN2CCCCC2)CC3)cnc(N)c1C (stereo unspecified),2.26%
18,Clc1ccc(OCc2ccccc2)c(Cc2ccc(-c3nc4cnccc4[nH]3)o2)c1,12.2%
19,c1cc(CN2CCN(c3ccncc3)CC2)cc(-c2ccc(-c3nc4ccccc4[nH]3)cc2)c1,13.9%
20,CS(=O)(=O)Nc1cccc(-c2cnc3[nH]cc(-c4ccc(C(=O)O)c(F)c4)c3c2)c1,4.63%
21,O=C(Nc1ccc(S(=O)(=O)N2CCCCC2)cc1)c1cc(-c2ccccc2O)n[nH]1,5.71%
22,CS(=O)(=O)CCNc1nccc(N2CCc3ncnc(Nc4ccc(OCc5cccc(F)c5)c(Cl)c4)c3C2)n1,8.33%

row,SMILES,IFI
1,CCCOc1cc(OCCC)cc(-c2cc(=O)c3ccccc3[nH]2)c1,5.88%
2,CC(=O)N1N=C(c2ccc(F)cc2)Sc2c1nc(-c1ccccc1)n2C(C)=O,4.29%
3,COC(=O)c1cccc(CNCc2cccc(-c3cccc(-c4nc5cc(C(F)(F)F)ccc5[nH]4)c3)c2)c1,6.73%
4,CCCCCc1cc(O)c2c(c1)OC(C)(C)C=C2C1=CCN(Cc2ccsc2)CC1,5.59%
5,CC1CCN(C(=O)CSc2nc(-c3ccc(C(C)C)cc3)no2)CC1,9.76%
6,CC[C@@H]([C@@H](CC(C)C)C(=O)N[C@@H](CCCCNC(=O)OCc1ccccc1)C(=O)Nc1ccccn1)N(O)C=O,2.9%
7,C#CCN(Cc1cc2c(=O)[nH]c(N)nc2cc1C)c1ccc(C(=O)N[C@@H](CCC(=O)O)C(=O)O)cc1,0.75%
8,CC(NC(=O)NC1CCC(CCN2CCCc3ccccc32)CC1)c1cccc2ccccc12 (stereo unspecified),5.88%
9,O=S(=O)(Nc1ccc2nccc(N3CCNCC3)c2c1)c1ccc2oc3ccccc3c2c1,5.22%
10,CCOc1ccc(-c2noc(-c3c[nH]c4ccccc4c3=O)n2)cc1,1.49%
11,Clc1ccc(-c2csc3ncnc(Cl)c23)cc1,3.38%
12,COc1cccc(C(=O)Nc2ccc(Nc3nc(C)cc(N(C)C)n3)cc2)c1OC,7.14%
13,CC(C)c1ccc(CN2CCC(CNC(=O)c3cc(-c4cccc(C(F)(F)F)c4)cs3)C2)cc1 (stereo unspecified),12.2%
14,O=C(/C=C/c1ccc(Cl)c(Cl)c1)N1CCC(CN2CCC(c3nc4ccccc4n3CCCO)CC2)CC1,0.75%
15,Cc1cc(N)c2cc(NC(=O)/C=C/c3ccccc3)ccc2n1,3.45%
16,O=C(/C=C/c1ccccc1Cl)Nc1ccc(Br)c(OCCN2CCC(O)(c3ccccc3)CC2)c1,7.64%
17,O=c1cc(NCCCNC(c2ccccc2)c2ccc(Cl)c(Cl)c2)[nH]c2ccccc12 (stereo unspecified),5%
18,OC(CNCCCc1ccccc1)c1cc(OCc2ccccc2)cc(OCc2ccccc2)c1 (stereo unspecified),5.22%
19,CCOc1ccccc1N1CCN(CCCNC(=O)/C(=C/C=C/c2cc3cc(Cl)c(Cl)cc3[nH]2)OC)CC1,10.8%
20,c1ccc2c(c1)ncn2-c1ccnc(Nc2ccncc2)n1,0.79%
21,O=S(=O)(c1ccccc1OC(F)(F)F)C1CC2CCC(C1)N2S(=O)(=O)c1cccc(C(F)(F)F)c1 (stereo unspecified),3.33%
22,CC(C)(C)CC(C)(C)c1ccc(O)c(CNC2CCCCC2)c1,8.96%

row,SMILES,IFI
1,Nc1cccc(CNCc2cccc(-c3cccc(-c4nc5ccccc5[nH]4)c3)c2)c1,8.49%
2,COc1ccc2nccc([C@@H](O)CN3CCC(NC(=O)/C=C/c4cccc(NC(C)=O)c4)CC3)c2c1,1.48%
3,CCN(CC)CCn1c2ccccc2c2ccc(C(=O)Nc3ccc4sc(C)nc4c3)cc21,14.4%
4,NC1CCN(Cc2ccc(-c3ccc(-c4nc5cc(F)ccc5[nH]4)cc3)cc2)C1 (stereo unspecified),7.04%
5,Cc1ccccc1OCC(=O)Nc1ccc(-c2nc3cc4ccccc4cc3[nH]2)cc1,0.73%
6,CN1CCC(NCc2cccc(-c3ccc(S(=O)(=O)NCCN4CCCC4)c(F)c3)c2)CC1,-0%
7,CCCn1c(Sc2ccc(C#N)c([N+](=O)[O-])c2)nnc1-c1ccc(OC)cc1,4.23%
8,COc1ccc2ccc(OC)c(CNCCCCCCNCc3c(OC)ccc4ccc(OC)cc34)c2c1,12%
9,O=C1Nc2ccc3ncccc3c2/C1=C/Nc1ccc(Cn2ccnc2)cc1,11.9%
10,Nc1c2ccccc2nc2cc([N+](=O)[O-])ccc12,6.92%
11,COc1ccccc1C(=O)Nc1cccc(N2CCC(NCc3ccc(-n4cccn4)cc3)CC2)c1,10.5%
12,O=C1C2C(c3ccc(Cl)c(Cl)c3)N3CC(OCc4ccccc4)CC3(C(=O)O)C2C(=O)N1c1ccc(Br)cc1 (stereo unspecified),0%
13,COc1ccc2ncc(C#N)c(CCN3CCC(NCc4ccc5c(c4)NC(=O)CO5)CC3)c2c1,3.73%
14,Nc1ncc(-c2cn[nH]c2)cc1-c1nc2cc(Cl)cnc2[nH]1,-0%
15,CCOC(=O)CC[C@@H](NC(=O)c1ccc(NCc2ccc3ccc4nc(C)[nH]c(=O)c4c3c2)cc1F)C(=O)N[C@@H](Cc1c[nH]c2ccccc12)C(=O)OCC,5.71%
16,CCN1CCN(CCCCNc2c3ccccc3nc3ccccc23)CC1,4.29%
17,Oc1ccc(CCNc2nc(NCc3ccccc3-c3ccc(C(F)(F)F)cc3)nc(NC3CCNCC3)n2)cc1,10.4%
18,Fc1cccc(COc2ccc(Nc3ncnc4sc(C#CCNC5CCCC5)cc34)cc2Cl)c1,4.38%
19,Cc1ccccc1C1CCN(C2CCC(NC(=O)/C=C/c3ccc4c(c3)OC(F)(F)O4)CC2)CC1 (stereo unspecified),17.2%
20,O=C(NCc1ccccn1)C(c1cc2ccccc2o1)N1CCN(C(c2ccccc2)c2ccccc2)CC1 (stereo unspecified),0.69%
21,O=S(=O)(NCCN1CCCC1)c1ccc(-c2ccc(CNCc3ccc(F)cc3)cc2)cc1F,7.48%
22,CC1(C)NC(N)=NC(=N)N1OCCOc1ccc(Cc2ccccc2)cc1,4.41%

row,SMILES,IFI
1,CC(C)C[C@H](NC(=O)c1ccc(OCCN2CCOCC2)cc1)C(=O)N[C@H](/C=N/N1CC(=O)NC1=O)CCc1ccccc1,1.83%
2,COCCCNc1sc(S(=O)(=O)c2ccccc2)nc1S(=O)(=O)c1ccc(C)cc1,1.41%
3,CCOC(=O)NC1=NC(C)(C)N(OCc2ccc(Cl)c(Cl)c2)C(NC(=O)OCC)=N1,-0%
4,O=C(Nc1ccc2c(ccn2C2CCCN(Cc3cc(F)cc(F)c3F)CC2)c1)c1ccco1 (stereo unspecified),6.25%
5,CC(=O)N[C@H](C(=O)Nc1ccc(-c2ccc(-c3nc4cc(C(F)(F)F)ccc4[nH]3)s2)cc1)C(C)C,7.02%
6,COc1cccc(OC2CCN(C(=O)c3ccc(-c4ccc(N5CCCC5=O)cc4C)cc3)CC2)c1,10.7%
7,CC(C)c1ccc(-c2noc(SCC(=O)N3CCCCC3C)n2)cc1 (stereo unspecified),4.88%
8,FC(F)(F)c1ccc2[nH]c(-c3ccc(-c4cccc(CNCCN5CCNCC5)c4)s3)nc2c1,8.82%
9,CC(C)N(Cc1ccc(-c2ccc(C(F)(F)F)cc2)cc1)C(=O)Cn1c(CCc2cccc(F)c2F)cc(=O)c2ccc(CCCN3CCCCC3)cc21,12.7%
10,CCCCCC(C)(C)NC[C@@H](O)[C@H](Cc1ccccc1)NC(=O)c1cc(NCC)cc(N2CCCC2=O)c1,0.75%
11,Cc1ccc(NC(=O)c2ccc3ncccc3c2)cc1OC1CCN(Cc2ccsc2)C1 (stereo unspecified),3.28%
12,CC1(C)NC(N)=NC(=N)N1OCc1ccc2ccccc2c1CON1C(=N)N=C(N)NC1(C)C,0.7%
13,CC(C)(C)c1ccc(CNC(=O)COc2ccc(-c3nnc(-c4cccc([N+](=O)[O-])c4)o3)cc2[N+](=O)[O-])cc1,1.47%
14,O=C(/C=C/c1ccc(Cl)c(Cl)c1)NCCCCCN1CCC(NC(=O)Nc2cc(F)ccc2F)CC1,9.27%
15,CCNc1cc(C(=O)N[C@@H](Cc2ccccc2)[C@H](O)CNC2(CC)CC2)cc(N2CCCCS2(=O)=O)c1,2.92%
16,CS(=O)(=O)NCCCNCc1ccc(-c2ccc(-c3nc4cc(F)ccc4[nH]3)cc2)cc1,5.94%
17,Cc1cc(NC(=O)Nc2ccc3ccn(C)c3c2)c2ccccc2n1,4.38%
18,COc1ccc2nccc([C@@H](O)CN3CCC(NCc4ccc5c(c4)NC(=O)CS5)CC3)c2c1,1.45%
19,CN1CCN(CCCN(Cc2cccc(-c3ccc(CNCCc4ccccc4)cc3)c2)C(=O)c2cccs2)CC1,11.3%
20,COc1ccc(-c2ccc(NC(=O)c3cccc(F)c3)cc2)cc1CNC(C)C,3.96%
